# From the supplement of paper PMC8728848
# This is one part of the list.
# Legend:
# Experiment in all cases: glycan array binding signal (z-score within array); higher = stronger binding
# Settings in all cases: glycan notation: IUPAC condensed, linker removed
# [1] = target: GlcNAc(b1-3)Gal(b1-4)GlcNAc
# Method in brief: (§1)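 Arrays were curated from the Consortium for Functional Glycomics database, 3228 in total, and kept only where the protein sequence was available. Binding is expressed as a within-array Z-score. This score was averaged across arrays of the same protein sequence at different concentrations or buffers and across linkers, and negative values can be read as non-binding.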
# [2] = target: GlcNAc(b1-3)Gal(b1-4)GlcNAc(b1-3)Gal(b1-4)GlcNAc
# Method in brief: as §1
# GlcNAc(b1-3)GalNAc = target: GlcNAc(b1-3)GalNAc
# Method in brief: as §1
# [3] = target: GlcNAc(b1-3)[GlcNAc(b1-6)]Gal(b1-4)GlcNAc
# Method in brief: as §1
# [4] = target: GlcNAc(b1-3)[GlcNAc(b1-6)]GalNAc
# Method in brief: as §1
# [5] = target: GlcNAc(b1-3)[GlcNAc(b1-6)]GlcNAc(b1-4)GlcNAc
# Method in brief: as §1
# [6] = target: GlcNAc(b1-4)Gal(b1-4)GlcNAc
# Method in brief: as §1
# [7] = target: GlcNAc(b1-4)GlcNAc(b1-4)GlcNAc
# Method in brief: as §1
# [8] = target: GlcNAc(b1-4)GlcNAc(b1-4)GlcNAc(b1-4)GlcNAc(b1-4)GlcNAc
# Method in brief: as §1
# [9] = target: GlcNAc(b1-4)GlcNAc(b1-4)GlcNAc(b1-4)GlcNAc(b1-4)GlcNAc(b1-4)GlcNAc
# Method in brief: as §1
# [10] = target: GlcNAc(b1-4)[GlcNAc(b1-6)]GalNAc
# Method in brief: as §1
# [11] = target: GlcNAc(b1-6)Gal(b1-4)GlcNAc
# Method in brief: as §1
# GlcNAc(b1-6)GalNAc = target: GlcNAc(b1-6)GalNAc
# Method in brief: as §1
# Kdn(a2-3)Gal(b1-3)GlcNAc = target: Kdn(a2-3)Gal(b1-3)GlcNAc
# Method in brief: as §1
# Kdn(a2-3)Gal(b1-4)GlcNAc = target: Kdn(a2-3)Gal(b1-4)GlcNAc
# Method in brief: as §1
# [12] = target: Man(a1-2)Man(a1-2)Man(a1-3)Man
# Method in brief: as §1
# [13] = target: Man(a1-2)Man(a1-2)Man(a1-6)[Man(a1-3)]Man
# Method in brief: as §1
# Man(a1-2)Man(a1-3)Man = target: Man(a1-2)Man(a1-3)Man
# Method in brief: as §1
# [14] = target: Man(a1-2)Man(a1-3)[Man(a1-2)Man(a1-6)]Man
# Method in brief: as §1
# [15] = target: Man(a1-2)Man(a1-3)[Man(a1-2)Man(a1-6)]Man(a1-6)[Man(a1-2)Man(a1-2)Man(a1-3)]Man(b1-4)GlcNAc(b1-4)GlcNAc
# Method in brief: as §1
# [16] = target: Man(a1-2)Man(a1-3)[Man(a1-2)Man(a1-6)]Man(a1-6)[Man(a1-3)[Man(a1-6)]Man(a1-6)]Man(b1-4)GlcNAc(b1-4)GlcNAc
# Method in brief: as §1
# [17] = target: Man(a1-2)Man(a1-3)[Man(a1-6)]Man(a1-6)[Man(a1-2)Man(a1-3)]Man(b1-4)GlcNAc(b1-4)GlcNAc
# Method in brief: as §1
# [18] = target: Man(a1-2)Man(a1-6)[Man(a1-3)]Man(a1-6)[Man(a1-2)Man(a1-2)Man(a1-3)]Man(b1-4)GlcNAc(b1-4)GlcNAc
# Method in brief: as §1
# Man(a1-3)[Man(a1-6)]Man = target: Man(a1-3)[Man(a1-6)]Man
# Method in brief: as §1
# [19] = target: Man(a1-3)[Man(a1-6)]Man(a1-6)[Man(a1-3)]Man(b1-4)GlcNAc(b1-4)GlcNAc
# Method in brief: as §1
# [20] = target: Man(a1-3)[Man(a1-6)]Man(b1-4)GlcNAc(b1-4)GlcNAc
# Method in brief: as §1
# Man(b1-4)GlcNAc = target: Man(b1-4)GlcNAc
# Method in brief: as §1
# Neu5Ac(a2-3)Gal = target: Neu5Ac(a2-3)Gal
# Method in brief: as §1
# [21] = target: Neu5Ac(a2-3)Gal(b1-3)GalNAc
# Method in brief: as §1
# [22] = target: Neu5Ac(a2-3)Gal(b1-3)GalNAc(b1-3)Gal(a1-4)Gal(b1-4)Glc
# Method in brief: as §1
# [23] = target: Neu5Ac(a2-3)Gal(b1-3)GalNAc(b1-3)Gal(b1-4)GlcNAc
# Method in brief: as §1
# [24] = target: Neu5Ac(a2-3)Gal(b1-3)GalNAc(b1-4)[Neu5Ac(a2-3)]Gal(b1-4)Glc
# Method in brief: as §1
# [25] = target: Neu5Ac(a2-3)Gal(b1-3)GalNAc6S
# Method in brief: as §1
# [26] = target: Neu5Ac(a2-3)Gal(b1-3)GlcNAc
# Method in brief: as §1
# [27] = target: Neu5Ac(a2-3)Gal(b1-3)GlcNAc6S
# Method in brief: as §1
# [28] = target: Neu5Ac(a2-3)Gal(b1-3)[Fuc(a1-4)]GlcNAc
# Method in brief: as §1
# [29] = target: Neu5Ac(a2-3)Gal(b1-3)[Fuc(a1-4)]GlcNAc(b1-3)Gal(b1-4)[Fuc(a1-3)]GlcNAc
# Method in brief: as §1
# [30] = target: Neu5Ac(a2-3)Gal(b1-3)[Neu5Ac(a2-3)Gal(b1-4)]GlcNAc
# Method in brief: as §1
binder,measurement,setting,value
MAL (Maackia amurensis) (protein) SDELSFTINNFMPNQGDLLFQGVATVSPTGVLQLTSEENGQPLEYSVGRVLYTAPVRIWDSTTGAVASFSTSFTFVVKAARGASDGLAFFLAPPDSQIPSGSVSKYLGLFNNSNSDSSNQIVAVEFDTYFGHSYDPWDPNYRHIGIDVNGIESIKTVQWDWINGGVAFATITYLAPNKTLIASLVYPSNQTSFIVAASVDLKEILPEWVRVGFSAATGAPKAVETHDVRSWSFTSTLEANSPADVDN,glycan array binding signal (z-score),[1],-0.316
same,glycan array binding signal (z-score),[2],-0.361
same,glycan array binding signal (z-score),GlcNAc(b1-3)GalNAc,-0.418
same,glycan array binding signal (z-score),[3],-0.381
same,glycan array binding signal (z-score),[4],-0.374
same,glycan array binding signal (z-score),[5],-0.239
same,glycan array binding signal (z-score),[6],-0.427
same,glycan array binding signal (z-score),[7],-0.417
same,glycan array binding signal (z-score),[8],-0.419
same,glycan array binding signal (z-score),[9],-0.046
same,glycan array binding signal (z-score),[10],-0.221
same,glycan array binding signal (z-score),[11],-0.412
same,glycan array binding signal (z-score),GlcNAc(b1-6)GalNAc,-0.302
same,glycan array binding signal (z-score),Kdn(a2-3)Gal(b1-3)GlcNAc,0.08
same,glycan array binding signal (z-score),Kdn(a2-3)Gal(b1-4)GlcNAc,1.56
same,glycan array binding signal (z-score),[12],-0.423
same,glycan array binding signal (z-score),[13],-0.292
same,glycan array binding signal (z-score),Man(a1-2)Man(a1-3)Man,-0.383
same,glycan array binding signal (z-score),[14],-0.303
same,glycan array binding signal (z-score),[15],-0.328
same,glycan array binding signal (z-score),[16],-0.305
same,glycan array binding signal (z-score),[17],-0.378
same,glycan array binding signal (z-score),[18],-0.211
same,glycan array binding signal (z-score),Man(a1-3)[Man(a1-6)]Man,-0.38
same,glycan array binding signal (z-score),[19],-0.159
same,glycan array binding signal (z-score),[20],0.125
same,glycan array binding signal (z-score),Man(b1-4)GlcNAc,-0.191
same,glycan array binding signal (z-score),Neu5Ac(a2-3)Gal,-0.429
same,glycan array binding signal (z-score),[21],-0.357
same,glycan array binding signal (z-score),[22],-0.194
same,glycan array binding signal (z-score),[23],-0.409
same,glycan array binding signal (z-score),[24],-0.409
same,glycan array binding signal (z-score),[25],0.112
same,glycan array binding signal (z-score),[26],-0.331
same,glycan array binding signal (z-score),[27],0.76
same,glycan array binding signal (z-score),[28],-0.428
same,glycan array binding signal (z-score),[29],-0.301
same,glycan array binding signal (z-score),[30],-0.425
